In experiment [1] the target is T1, GST-Nv-NF-kB (Cys allele) (UniProt E5G601).
T1 sequence: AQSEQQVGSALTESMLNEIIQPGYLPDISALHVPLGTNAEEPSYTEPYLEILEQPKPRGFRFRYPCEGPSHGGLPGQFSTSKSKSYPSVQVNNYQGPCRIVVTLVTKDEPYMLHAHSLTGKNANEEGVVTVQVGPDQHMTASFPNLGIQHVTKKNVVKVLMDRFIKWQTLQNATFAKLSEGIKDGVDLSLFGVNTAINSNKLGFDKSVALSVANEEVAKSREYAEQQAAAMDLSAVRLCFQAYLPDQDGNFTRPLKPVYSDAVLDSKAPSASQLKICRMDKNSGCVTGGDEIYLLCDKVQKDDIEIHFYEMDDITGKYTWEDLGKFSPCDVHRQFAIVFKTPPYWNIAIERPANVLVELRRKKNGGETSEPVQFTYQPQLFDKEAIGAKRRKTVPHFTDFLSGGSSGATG
The experiment in a line: protein-binding microarray (PBM). The note with it: PBM: ~300 nM protein, 6 mM HEPES pH 7.8, 80 mM KCl, 0.5 mM EDTA, 0.5 mM EGTA, 6% glycerol, 35 ng/ul poly-dIdC, 1% milk, 1 h, room temperature; high values mean tight binding; double strand, one strand shown.

The target of experiment [2] is T2, GST-Co-NF-kB (UniProt F1ARL5).
T2 sequence: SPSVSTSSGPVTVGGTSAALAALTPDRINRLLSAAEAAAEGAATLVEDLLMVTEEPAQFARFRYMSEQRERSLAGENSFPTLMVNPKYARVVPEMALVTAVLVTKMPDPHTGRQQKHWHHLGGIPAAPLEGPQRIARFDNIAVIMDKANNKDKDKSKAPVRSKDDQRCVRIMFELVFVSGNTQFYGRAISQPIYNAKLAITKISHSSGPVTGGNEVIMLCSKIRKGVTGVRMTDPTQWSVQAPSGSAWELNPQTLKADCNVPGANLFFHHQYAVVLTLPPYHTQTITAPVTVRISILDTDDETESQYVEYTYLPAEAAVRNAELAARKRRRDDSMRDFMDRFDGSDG
The experiment in a line: protein-binding microarray (PBM). The note with it: PBM: ~300 nM protein, 6 mM HEPES pH 7.8, 80 mM KCl, 0.5 mM EDTA, 0.5 mM EGTA, 6% glycerol, 35 ng/ul poly-dIdC, 1% milk, 1 h, room temperature; Ap Aiptasia and Nv Nematostella (sea anemones) / Co Capsaspora / Aq Amphimedon (sponge) / Dm Drosophila / Hu human; RHD is the Rel homology domain; high values mean tight binding; most listed sequences are background and not binding sites; double strand, one strand shown.

The results in this text go back to paper PMC5700166.

The entries are a selection whose mix differs from that of the whole data set. The list includes weakly bound sequences.

Consider “CCGATTAACATCAATGTCCCCCCTGATGTTAATCGGGTCTTGATTCGCTTGACGCTGCTG”, for which the binding signal in experiment [1] is 4.79 z-score; in experiment [2], 8.35 z-score.
As for “CCGATTAACATCAGGGGGGTTACTGATGTTAATCGGGTCTTGATTCGCTTGACGCTGCTG”, the binding signal in experiment [1] was found to be 4.42 z-score; in experiment [2], 4.24 z-score.
The corresponding values for “CCGATTAACATCAGGAGAGTCCCTGATGTTAATCGGGTCTTGATTCGCTTGACGCTGCTG” are 5.29 z-score and 0.295 z-score.
The like results for “CCGATTAACATCACGGGGAGTCCTGATGTTAATCGGGTCTTGATTCGCTTGACGCTGCTG” were, in that order, 3.95 z-score and 4.24 z-score.
The like results for “CCGATTAACATCAGGGGGAACCATGATGTTAATCGGGTCTTGATTCGCTTGACGCTGCTG” were, in that order, 6.04 z-score and 8.58 z-score.
As to “CCGATTAACATCAGAGAAACCCCTGATGTTAATCGGGTCTTGATTCGCTTGACGCTGCTG”, the results for the binding signal in experiment [1] and in experiment [2] were 4.86 z-score and 0.79 z-score, respectively.
The like results for “CCGATTAACATCACTTTTTCCCATGATGTTAATCGGGTCTTGATTCGCTTGACGCTGCTG” were, in that order, 3.6 z-score and 4.08 z-score.
“CCGATTAACATCAACTTTCCCCCTGATGTTAATCGGGTCTTGATTCGCTTGACGCTGCTG”: the binding signal in experiment [1] came out at 7.45 z-score; in experiment [2], 9.36 z-score.
Take “CCGATTAACATCACCCGGGAAAATGATGTTAATCGGGTCTTGATTCGCTTGACGCTGCTG”: the binding signal was 3.28 z-score in experiment [1] and 5.18 z-score in experiment [2].
The like results for “CCGATTAACATCAGGAGATCCCATGATGTTAATCGGGTCTTGATTCGCTTGACGCTGCTG” were, in that order, 0.935 z-score and 0.376 z-score.
For the sequence “CCGATTAACATCACCCAGGGAAATGATGTTAATCGGGTCTTGATTCGCTTGACGCTGCTG”, the binding signal came to 2.66 z-score in experiment [1] and 2.73 z-score in experiment [2].
With “CCGATTAACATCAGGGGAACACCTGATGTTAATCGGGTCTTGATTCGCTTGACGCTGCTG”, the binding signal came out at 6.62 z-score in experiment [1] and 5.77 z-score in experiment [2].
The like results for “CCGATTAACATCAGGGACTTCTATGATGTTAATCGGGTCTTGATTCGCTTGACGCTGCTG” were, in that order, 6.35 z-score and 0.975 z-score.
The corresponding values for “CCGATTAACATCAGGGAATTTCATGATGTTAATCGGGTCTTGATTCGCTTGACGCTGCTG” are 7.17 z-score and 3.61 z-score.
Consider “CCGATTAACATCACGGGGGAAAATGATGTTAATCGGGTCTTGATTCGCTTGACGCTGCTG”, for which the binding signal stood at 6.21 z-score in experiment [1] and 11.7 z-score in experiment [2].
The like results for “CCGATTAACATCAGGGGAAAAAATGATGTTAATCGGGTCTTGATTCGCTTGACGCTGCTG” were, in that order, 8.26 z-score and 11.1 z-score.
The corresponding values for “CCGATTAACATCAGGAAAGACCCTGATGTTAATCGGGTCTTGATTCGCTTGACGCTGCTG” are 4.11 z-score and -1.06 z-score.
The like results for “CCGATTAACATCAAATTTCCCCTTGATGTTAATCGGGTCTTGATTCGCTTGACGCTGCTG” were, in that order, 10.8 z-score and 7.98 z-score.
As to “CCGATTAACATCAGGAATGCCCCTGATGTTAATCGGGTCTTGATTCGCTTGACGCTGCTG”, the binding signal came to 6.58 z-score in experiment [1] and 1.64 z-score in experiment [2].
The like results for “CCGATTAACATCACGGGAAGCCCTGATGTTAATCGGGTCTTGATTCGCTTGACGCTGCTG” were, in that order, 1.91 z-score and 0.82 z-score.
The corresponding values for “CCGATTAACATCAGGGAAATCTATGATGTTAATCGGGTCTTGATTCGCTTGACGCTGCTG” are 5.31 z-score and 4.52 z-score.
For the sequence “CCGATTAACATCACGGTAATCCCTGATGTTAATCGGGTCTTGATTCGCTTGACGCTGCTG”, the binding signal turned out to be 1.91 z-score in experiment [1] and 0.958 z-score in experiment [2].
As to “CCGATTAACATCAACAAAATCCCTGATGTTAATCGGGTCTTGATTCGCTTGACGCTGCTG”, the binding signal in experiment [1] is 3.64 z-score; in experiment [2], 1.89 z-score.
The corresponding values for “CCGATTAACATCAATACTCCCCCTGATGTTAATCGGGTCTTGATTCGCTTGACGCTGCTG” are 5.41 z-score and 8.03 z-score.
Regarding “CCGATTAACATCACACATCCCCCTGATGTTAATCGGGTCTTGATTCGCTTGACGCTGCTG”, the binding signal in experiment [1] came to 4.4 z-score; in experiment [2], 4.17 z-score.
As to “CCGATTAACATCAGGCTTTCCCATGATGTTAATCGGGTCTTGATTCGCTTGACGCTGCTG”, the binding signal in experiment [1] stood at 2.94 z-score; in experiment [2], 2.07 z-score.
In the case of “CCGATTAACATCACGGCAACCCCTGATGTTAATCGGGTCTTGATTCGCTTGACGCTGCTG”, the binding signal was found to be 0.862 z-score in experiment [1] and 0.5 z-score in experiment [2].
The like results for “CCGATTAACATCAGGGATTTTGATGATGTTAATCGGGTCTTGATTCGCTTGACGCTGCTG” were, in that order, 2.95 z-score and 0.653 z-score.
For “CCGATTAACATCAAGGGATCCCCTGATGTTAATCGGGTCTTGATTCGCTTGACGCTGCTG”, the results for the binding signal in experiment [1] and in experiment [2] were 5.8 z-score and 4.18 z-score, respectively.
Consider “CCGATTAACATCAGGGGAAATTATGATGTTAATCGGGTCTTGATTCGCTTGACGCTGCTG”, for which the binding signal in experiment [1] turned out to be 10.5 z-score; in experiment [2], 9.24 z-score.
The corresponding values for “CCGATTAACATCAGAAGTCCCCCTGATGTTAATCGGGTCTTGATTCGCTTGACGCTGCTG” are 7.32 z-score and 5.95 z-score.
The like results for “CCGATTAACATCAGGGGAGTATATGATGTTAATCGGGTCTTGATTCGCTTGACGCTGCTG” were, in that order, 3.81 z-score and 4.7 z-score.
On to “CCGATTAACATCAGAGTTCCCCCTGATGTTAATCGGGTCTTGATTCGCTTGACGCTGCTG”, for which the figures for the binding signal in experiment [1] and in experiment [2] were 7.87 z-score and 8.96 z-score, respectively.
